Test results: the supplement of paper PMC3694890
± gives the uncertainty stated by the source. This is one part of the list. A small y stands for phosphotyrosine.

B1: RET_809/A1 (peptide)
chain: yGSLRG
B2: ROR2_666/A1 (peptide)
chain: yGKFSI
B3: ROR2_645/A1 (peptide)
chain: yYKLLG
B4: RET_905/A1 (peptide)
chain: yVKRSQ
B5: RIN1_36/A1 (peptide)
chain: yDVPNA
B6: ROS1_2274/A1 (peptide)
chain: yMVLAT
B7: ROR1_836/A1 (peptide)
chain: yQPTGP
B8: ROR1_828/A1 (peptide)
chain: yAAFPA
B9: RYK_492/A1 (peptide)
chain: yHCLGD
B10: SH22A_290/A1 (peptide)
chain: yAMGRG
B11: SH22A_305/A1 (peptide)
chain: yVEVED
B12: BCAR1_287/A1 (peptide)
chain: yDVPPS
B13: ROR2_624/A1 (peptide)
chain: yDKLNV
B14: SH22A_216/A1 (peptide)
chain: ySPIIK
B15: RET_900/A1 (peptide)
chain: yEEDSY
B16: ROR2_646/A1 (peptide)
chain: yKLLGN
B17: ROR1_789/A1 (peptide)
chain: yMFPSQ
B18: RYK_452/A1 (peptide)
chain: yLARRE
B19: ROR2_873/A1 (peptide)
chain: yVTTAP
B20: RIN1_632/A1 (peptide)
chain: yQDPSS
B21: RET_981/A1 (peptide)
chain: yRLMLQ
B22: RET_826/A1 (peptide)
chain: yLGSGG
B23: ROS1_2334/A1 (peptide)
chain: yACLTH
B24: SH22A_280/A1 (peptide)
chain: yNEPDE
B25: ROR1_786/A1 (peptide)
chain: yPNYMF
B26: ROR1_173/A1 (peptide)
chain: yRGIAC
B27: BCAR1_249/A1 (peptide)
chain: yDVPPV
B28: ROR1_160/A1 (peptide)
chain: ySDEYE
B29: BCAR1_267/A1 (peptide)
chain: yDTPPM
B30: ROS1_2114/A1 (peptide)
chain: yYRKRG
B31: ROR2_488/A1 (peptide)
chain: yKGHLF
B32: ROR1_645/A1 (peptide)
chain: yYRVQS
B33: RYK_556/A1 (peptide)
chain: yRIAQP

The binders below were run against GRB2 (endogenous complexes from cell lysate), P62993 (assay: GRB2 complex binding differential signal (pY peptide minus Ala control peptide) (fluorescence intensity units); higher = stronger GRB2 complex binding). Details: MCF7.
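Note: phosphopeptide probes on the chip at 1–4 µM, lysate proteins bound in 20 mM Tris pH 7.0 buffer with 140 mM NaCl, 1% Triton X-100 and 5% glycerol.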

| Binder | GRB2 complex binding differential signal |
| --- | --- |
| B1 | 2980 ± 400 |
| B2 | 996 ± 210 |
| B3 | 247 ± 280 |
| B4 | 856 ± 360 |
| B5 | 4000 ± 900 |
| B6 | 655 ± 260 |
| B7 | 2060 ± 2400 |
| B8 | 2460 ± 1900 |
| B9 | 42.9 ± 300 |
| B10 | 1350 ± 1100 |
| B11 | 253 ± 770 |
| B12 | 2280 ± 390 |
| B13 | 1560 ± 270 |
| B14 | 3630 ± 560 |
| B15 | 37.1 ± 240 |
| B16 | 2980 ± 390 |
| B17 | 2570 ± 900 |

| Binder | GRB2 complex binding differential signal |
| --- | --- |
| B18 | 1040 ± 590 |
| B19 | 4970 ± 1600 |
| B20 | 5800 ± 1700 |
| B21 | 457 ± 360 |
| B22 | 998 ± 300 |
| B23 | 717 ± 250 |
| B24 | 1740 ± 990 |
| B25 | 1200 ± 1200 |
| B26 | 1080 ± 960 |
| B27 | 2730 ± 830 |
| B28 | -214 ± 430 |
| B29 | 3400 ± 970 |
| B30 | 156 ± 180 |
| B31 | 971 ± 400 |
| B32 | 1630 ± 1200 |
| B33 | 6520 ± 3800 |

Same assay, conditions: MCF10A

| Binder | GRB2 complex binding differential signal |
| --- | --- |
| B1 | 912 ± 210 |
| B2 | 193 ± 490 |
| B3 | 146 ± 220 |
| B4 | 1130 ± 320 |
| B5 | 978 ± 1300 |
| B6 | 472 ± 230 |
| B7 | 2790 ± 340 |
| B8 | 688 ± 520 |
| B9 | 59.9 ± 130 |
| B10 | 737 ± 380 |
| B11 | 447 ± 310 |
| B12 | 404 ± 580 |
| B13 | 1720 ± 320 |
| B14 | 2500 ± 330 |
| B15 | 82.3 ± 250 |
| B16 | 1480 ± 530 |
| B17 | 1220 ± 440 |

| Binder | GRB2 complex binding differential signal |
| --- | --- |
| B18 | 1570 ± 560 |
| B19 | 5130 ± 830 |
| B20 | 3660 ± 600 |
| B21 | 264 ± 230 |
| B22 | 606 ± 270 |
| B23 | 280 ± 810 |
| B24 | 1830 ± 410 |
| B25 | -201 ± 1400 |
| B26 | 630 ± 240 |
| B27 | 1260 ± 460 |
| B28 | 30 ± 130 |
| B29 | 1910 ± 600 |
| B30 | 48.1 ± 150 |
| B31 | 223 ± 310 |
| B32 | 880 ± 290 |
| B33 | 5130 ± 1000 |

Same assay, conditions: MDA-MB-231

| Binder | GRB2 complex binding differential signal |
| --- | --- |
| B1 | 503 ± 340 |
| B2 | 100 ± 300 |
| B3 | 874 ± 400 |
| B4 | 283 ± 470 |
| B5 | 1300 ± 630 |
| B6 | 927 ± 500 |
| B7 | 760 ± 350 |
| B8 | 2210 ± 910 |
| B9 | 473 ± 350 |
| B10 | 294 ± 350 |
| B11 | 699 ± 360 |
| B12 | 1300 ± 400 |
| B13 | 465 ± 370 |
| B14 | 1760 ± 330 |
| B15 | 274 ± 390 |
| B16 | 1010 ± 330 |
| B17 | 1050 ± 660 |

| Binder | GRB2 complex binding differential signal |
| --- | --- |
| B18 | 638 ± 330 |
| B19 | 1820 ± 450 |
| B20 | 1230 ± 470 |
| B21 | 387 ± 430 |
| B22 | 270 ± 250 |
| B23 | 1120 ± 310 |
| B24 | 742 ± 420 |
| B25 | 769 ± 380 |
| B26 | 123 ± 430 |
| B27 | 1240 ± 480 |
| B28 | 65.5 ± 250 |
| B29 | 2140 ± 490 |
| B30 | 425 ± 300 |
| B31 | 468 ± 300 |
| B32 | 675 ± 440 |
| B33 | 1390 ± 1400 |

Same assay, conditions: T47D

| Binder | GRB2 complex binding differential signal |
| --- | --- |
| B1 | 379 ± 1600 |
| B2 | 582 ± 850 |
| B3 | 877 ± 950 |
| B4 | 665 ± 1200 |
| B5 | 1570 ± 1000 |
| B6 | 237 ± 790 |
| B7 | 1410 ± 1000 |
| B8 | 4660 ± 2400 |
| B9 | 68.4 ± 960 |
| B10 | 71.6 ± 990 |
| B11 | 251 ± 980 |
| B12 | 843 ± 970 |
| B13 | 793 ± 1200 |
| B14 | 1200 ± 1700 |
| B15 | 338 ± 1500 |
| B16 | 1940 ± 820 |

| Binder | GRB2 complex binding differential signal |
| --- | --- |
| B17 | 1320 ± 950 |
| B18 | 329 ± 850 |
| B19 | 2310 ± 1300 |
| B20 | 1830 ± 980 |
| B21 | 817 ± 1100 |
| B22 | 280 ± 1100 |
| B23 | 4770 ± 1600 |
| B24 | 3.65 ± 960 |
| B25 | 2390 ± 1100 |
| B26 | 72.6 ± 910 |
| B27 | 246 ± 790 |
| B29 | 1670 ± 1100 |
| B30 | 97.1 ± 650 |
| B31 | 379 ± 1100 |
| B32 | 573 ± 990 |
| B33 | 1070 ± 1000 |
